# Among all 420,000 compounds or so, about 64,000 (15%) were called active. The inconclusive results got no clear call from the source; some entries with a clear call stand among them for comparison. Calls come from the whole dose curve; as a rule, active = well fitted inhibition curve with a large enough effect; inconclusive = small, poorly fitted or top-dose-only effect; inactive = flat fitted curve, though single readings scatter. Potencies of inconclusive entries are left out as doubtful fits.
# Assay: qHTS for Inhibitors of human tyrosyl-DNA phosphodiesterase 1 (TDP1): qHTS in cells in absence of CPT; note: nearly all actives have a fitted effect of over 55% in size
# Conditions: DT40 Tdp1-/- hTDP1 cells, no CPT, ATP luminescence, 48 h; activity change, negative = growth inhibition: at 46.2 µM (top of the series) unless noted
# Summary of the method: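 Stably hTDP1-transfected Tdp1-null chicken DT40 cells were treated with library compounds minus camptothecin and grown for at least 48 hr at 37 °C, after which cellular ATP was quantified by luminescence.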
# % is set by controls: 0 for no effect and ±100 for the full control effect; potency is the fitted concentration of half-maximal effect; tags give direction and shape of the fitted curve.
SMILES,Potency,"activity change, negative = growth inhibition"
Cc1cccc(N2C(=O)CN(Cc3cccs3)C2=S)c1,"inconclusive [inhibitor, partial curve, poor fit]",–
COc1cccc(C(=O)C2CCCN(Cc3cn(C)nc3-c3ccccc3)C2)c1 (configuration not stated),"inconclusive [inhibitor, single point]",–
COC(=O)c1cc(S(=O)(=O)N2c3ccccc3CC2C)c[nH]1 (configuration not stated),"inconclusive [inhibitor, single point]",–
CCOC(=O)c1c(C)oc2nc(C)nc(NCC3CCN(Cc4ccc(C)cc4)CC3)c12,–,inactive: -23.6%
CCOC(=O)/C(C#N)=C/c1cc(C)n(-c2ccc(C)cc2)c1C,active: 18.4 µM,–
Cc1ccccc1CSc1cn(CC(=O)N2CCCCC2)c2ccccc12,active: 16.4 µM,–
Clc1cccc(-c2nc3ccc(Br)cn3c2Cc2ccccc2)c1,"inconclusive [inhibitor, single point]",–
CC(=O)Nc1cc(-c2ccc(CO)cc2)cn2c(-c3ccc(F)cc3)cnc12,active: 16.4 µM,–
O=C(OCCN1C(=O)c2ccccc2C1=O)Oc1ccccc1,–,inactive: 3.82%
O=C(Nc1cccc(C(F)(F)F)c1)c1cnn(-c2cccc(F)c2)c1C1CCNCC1,"inconclusive [inhibitor, single point]",–
CC(=O)c1ccc(OC2(C)CCN(Cc3ccccc3OC(F)F)C2)cc1 (configuration not stated),"inconclusive [inhibitor, single point]",–
CC(C)(C)c1ccccc1NC(=O)c1ccco1,–,inactive: -2.56%
COc1ccc(C(C)(C)C)cc1NC(=O)C1CC(=O)N(C2CCCC2)C1 (configuration not stated),–,inactive: -25%
CCOC(=O)c1ccc2c(c1)nc(C)n2CC,"inconclusive [inhibitor, single point]",–
COC(=O)C[C@@H]1C[C@@H]2c3cc(NS(=O)(=O)c4ccc(F)cc4)ccc3O[C@@H]2[C@H](CO)O1,–,inactive: -30.5%
COc1ccc(-c2cc(C)no2)cc1S(=O)(=O)N(C)c1ccc(C)cc1,active: 9.2 µM,–
CN1CCN(C(=O)C2Cc3c(-c4ccc5c(c4)OCO5)ccnc3O2)CC1 (configuration not stated),–,inactive: -29.9%
CC(C)C[C@@H](NC(=O)C1CCC(CNC(=O)[C@H](Cc2ccccc2)NC(=O)OC(C)(C)C)CC1)C(=O)O (some centres not stated),–,inactive: 0.936%
COc1ccccc1[C@@H]1C(c2cccc(Cl)c2)=NN(c2ccc(Br)cc2)[C@H]1C(=O)N1CCOC1=O,"inconclusive [inhibitor, single point]",–
Cc1c(C(=O)NC(C)C2CC3CCC2C3)cccc1[N+](=O)[O-] (configuration not stated),"inconclusive [inhibitor, single point]",–
CN(C)CCNC(=O)Cn1ccc2cc(S(=O)(=O)N3CCCCC3)ccc21,–,inactive: 21.8%
O=C(Nc1ccc(Cl)cc1F)C1CC1,–,inactive: -0.511%
CC(=O)OC1COC(N2CCc3ccccc32)C(OC(C)=O)C1OC(C)=O (configuration not stated),–,inactive: -8.52%
CN(C)CCCN1C(=O)c2oc3ccc(Cl)cc3c(=O)c2C1c1cccnc1 (configuration not stated),–,inactive: 0.674%

SMILES,Potency,"activity change, negative = growth inhibition"
CCOC(=O)CSc1ccc(C(=O)Nc2ccc(Cl)cc2)cn1,"inconclusive [inhibitor, partial curve, poor fit]",–
O=C(CN1CCOCC1)N/N=C/c1c(O)ccc2ccccc12,active: 9.2 µM,–
CCOc1ccc(CCNC(=O)c2oc(=O)c3ccccc3c2-c2ccc(C)cc2)cc1OCC,"inconclusive [inhibitor, single point]",–
O=C(Cc1ccc(F)cc1)Nc1ccc(S(=O)(=O)N2CCCC2)cc1,"inconclusive [inhibitor, single point]",–
Cn1c(=O)c(C(=O)Nc2ccccn2)c(O)c2ccccc21,"inconclusive [inhibitor, single point]",–
Cc1cc(C(C)(C)C)oc1C(=O)N(CC(=O)NC1CCCC1)c1c(C)cccc1C,active: 5.17 µM,–
Cc1nn(-c2ccccc2)c2nc(N)c(C#N)c(-c3ccc(C(C)(C)C)cc3)c12,"inconclusive [inhibitor, single point]",–
CCc1ccccc1N1C(=O)C2C3C=CC(CC3)C2C1=O (configuration not stated),–,inactive: -2.52%
CCc1ccc(-c2cc(C(=O)NN3CCOCC3)c3ccccc3n2)s1,"inconclusive [inhibitor, full curve]",–
CC(NC(=O)CSC(=S)N(C)C)C12CC3CC(CC(C3)C1)C2 (configuration not stated),"inconclusive [inhibitor, single point]",–
C/C(=N\NC(=S)NCCc1ccccc1)c1ccc(C#N)cc1,active: 13 µM,–
CCn1c(CCn2c3ccccc3c3ccccc32)n[nH]c1=S,"inconclusive [inhibitor, single point]",–
Cc1ccc(C)c(Cn2c(=O)n(CCCCC(=O)NCc3ccc4c(c3)OCO4)c(=O)c3ccccc32)c1,"inconclusive [inhibitor, single point]",–
O=C(NCc1cccc(F)c1)c1[nH]c(C(F)(F)F)nc1-c1ccccc1,"inconclusive [inhibitor, single point]",–
CC(=O)N(c1ccccc1)c1nc(/C=C/C(=O)O)cs1,–,inactive: -13.3%
Cc1nnc(NC(=O)c2cccc(Br)c2)s1,"inconclusive [inhibitor, single point]",–
COc1cc2[nH]c(=O)n(CCCC(=O)N3CC=C(c4ccccc4)CC3)c(=O)c2cc1OC,active: 20.6 µM,–
COc1ccc(/C=C/C(=O)NCCC(=O)N2CCCN(C)CC2)cc1,"inconclusive [inhibitor, full curve, poor fit]",–
Oc1ccccc1CNc1ccc2c(c1)OCCO2,–,inactive: -14.9%
Cc1ccc(C(=O)NCCCNC(=O)Cc2ccccc2)cn1,–,inactive: -3.71%
CCc1nnc(NC(=O)CCC(=O)N2CCN(C3c4ccccc4-c4ccccc43)CC2)s1,–,inconclusive: -37.3% [inhibitor]
CCC(CO)Oc1cc(NCc2ccc(C(F)(F)F)cc2)c2ncn(C(C)C)c2c1 (configuration not stated),"inconclusive [inhibitor, single point]",–
Cc1cc(C)cc(NC(=O)Nc2cc(-c3ccccc3)nn2C)c1,"inconclusive [inhibitor, single point]",–
COc1ccc(C(=O)NCC(c2ccco2)S(=O)(=O)c2ccc(F)cc2)cc1 (configuration not stated),"inconclusive [inhibitor, single point]",–

SMILES,Potency,"activity change, negative = growth inhibition"
CCOC(=O)[C@]12CCCC=C1N(CCC1=CCCCC1)C(=O)[C@H](CC(=O)NCCc1ccccc1OC)C2,active: 13 µM,–
c1ccc(-c2csc(Nc3cccnc3)n2)cc1,"inconclusive [inhibitor, single point]",–
O=C(CCOc1ccccc1)Nc1ccc(Cl)c(S(=O)(=O)N2CCOCC2)c1,"inconclusive [inhibitor, single point]",–
O=C1CCC(=O)N(O)CCCCCNC(=O)CCC(=O)N(O)CCCCCNC(=O)CCC(=O)N(O)CCCCCN1,"inconclusive [inhibitor, single point]",–
COc1ccc(CNC(=O)C2(CC3CC(c4ccccc4)=NO3)CCN(C(=O)OC(C)(C)C)CC2)cc1 (configuration not stated),"inconclusive [inhibitor, single point]",–
Cc1cc(C)n(CCN(C)C(=O)C2CCC(=O)N(CCN3CCOCC3)C2)n1 (configuration not stated),–,inactive: -5.65%
O=C(NCc1ccco1)C1CC(c2ccccc2O)=NO1 (configuration not stated),"inconclusive [inhibitor, partial curve]",–
Cn1c(=O)c2c([nH]c(=S)n2CCCc2ccccc2)n(C)c1=O,"inconclusive [inhibitor, single point]",–
CCCCN(CCCC)CCCNC(=O)Cn1cc2c(n1)-c1c(oc(C(=O)N3CCCC3)c1C)CC2,"inconclusive [inhibitor, single point]",–
COc1ccc(C(=O)O)cc1S(=O)(=O)NCc1ccncc1,–,inactive: 17.1%
N#CCCC(C#N)(c1cccnc1)N1CCOCC1 (configuration not stated),–,inactive: -1.39%
Cc1ccccc1-c1nnc(SCC(=O)Nc2cccnc2Cl)o1,active: 16.4 µM,–
COC(=O)c1ccc(N2CCN(S(=O)(=O)c3ccc(Br)cc3)CC2)c([N+](=O)[O-])c1,"inconclusive [inhibitor, single point]",–
O=C(Nc1ccccc1)O[C@@H]1C[C@H]2CCC(=O)N3CC[C@@H](C1)[C@@H]23,active: 11.2 µM,–
COc1ccc(-c2ccc3c(c2)S(=O)(=O)c2cccc(C(=O)NCc4cccc(OC(F)(F)F)c4)c2C3=O)cc1OC,"inconclusive [inhibitor, partial curve, poor fit]",–
COc1ccccc1NC(=O)COc1ccc(Br)cc1CNCCCN1CCOCC1,–,inconclusive: -35.3% [inhibitor]
CCCNC(=O)c1onc(CSc2ccc(F)cc2)c1C(=O)NCC1CC1,"inconclusive [inhibitor, single point]",–
COc1ccc(NC(=O)N2CCCc3ccccc32)cc1OC,–,inactive: 19.5%
O=C(NC1CCCCC1)N1CCN(C(c2ccccc2)c2ccccc2)CC1,active: 16.4 µM,–
N=c1scc(-c2ccccc2)n1/N=C/c1ccco1,"inconclusive [inhibitor, full curve, poor fit]",–
COc1cc2ccccc2cc1C(=O)N/N=C/c1cccnc1,"inconclusive [inhibitor, full curve, poor fit]",–
Cc1ccc(CNC(=O)C2CC3Cn4c(nc5cc(Cl)c(Cl)cc54)C3N2C)o1 (configuration not stated),"inconclusive [inhibitor, single point]",–
CC1(C)Cc2c(cnn2-c2ccc(F)cc2)C(NC(=O)c2ccoc2)C1 (configuration not stated),–,inactive: 0.161%
CCOC(=O)c1ccc(N2C(=O)c3[nH]nc(-c4ccc(C)cc4)c3C2c2cccs2)cc1 (configuration not stated),active: 16.4 µM,–

# Reference: PubChem BioAssay AID686978 (National Center for Advancing Translational Sciences (NCATS), 2013)
